# From the supplement of paper PMC8285479
# Structures can show the parent of a compound that is named as a salt. ± gives the standard deviation of the averaged measurements. In all, about 1,900 compounds were measured (“normalised cell viability (NPI; 0 = phenylarsine oxide control, 1 = DMSO control)”: median about 1, lowest 2% from about 0.039 on). Some of the results follow.
# Tested on: NCI-H1944
# Experiment: normalised cell viability (NPI; 0 = phenylarsine oxide control, 1 = DMSO control) (fraction of DMSO control); NCI-H1944 is a non-small cell lung cancer line; higher = more viable cells (less compound toxicity)
# Settings: 6 days
# [1] = glucocorticoid arm: hydrocortisone 2.75 uM co-treatment, compound 1 µM
# [2] = glucocorticoid arm: hydrocortisone 2.75 uM co-treatment, compound 5 µM
# [3] = glucocorticoid arm: hydrocortisone 2.75 uM pre-treated 2 days and continued, compound 1 µM
# [4] = glucocorticoid arm: hydrocortisone 2.75 uM pre-treated 2 days and continued, compound 5 µM
# [5] = glucocorticoid arm: vehicle, compound 1 µM
# [6] = glucocorticoid arm: vehicle, compound 5 µM
# 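Note: CTB read-out in 384-well plates, mean of triplicate wells, normalised per plate against 1 µM phenylarsine oxide and 0.1% DMSO, compounds added 24 h after seeding.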
Compound,normalised cell viability [1],normalised cell viability [2],normalised cell viability [3],normalised cell viability [4],normalised cell viability [5],normalised cell viability [6]
COc1ccc(COc2cc3oc(=O)c4cc(C(C)O)ccc4c3cc2OC)cc1 (stereo unspecified) [Palomid 529],1.01 ± 0.018,0.942 ± 0.038,0.97 ± 0.019,0.96 ± 0.017,1.003 ± 0.0061,0.992 ± 0.0056
O=C(O)c1ccccc1Nc1cccc(OCc2ccc3ccccc3n2)c1,1.01,1.043 ± 0.0058,1.03 ± 0.032,1.04 ± 0.02,1.013 ± 0.0058,1.033 ± 0.0058
O=C1CCc2c(ccc3ccccc23)O1 [Splitomicin],1 ± 0.024,1.01 ± 0.018,1 ± 0.013,0.999 ± 0.025,1 ± 0.011,1.006 ± 0.0097
CC[C@@H]1C(=O)N(C)c2cnc(Nc3ccc(C(=O)NC4CCN(C)CC4)cc3OC)nc2N1C1CCCC1,0.535 ± 0.026,0.4 ± 0.057,0.797 ± 0.042,0.592 ± 0.083,0.0889 ± 0.011,0.0658 ± 0.0046
Cn1c(=O)c2c(ncn2C)n(C)c1=O [Caffeine],1.007 ± 0.0058,1.01 ± 0.02,1.01,1.02,1 ± 0.016,1.013 ± 0.0058
Cc1c(OCC(F)(F)F)ccnc1C[S+]([O-])c1nc2ccccc2[nH]1 (stereo unspecified) [Lansoprazole],1.01 ± 0.01,1.02 ± 0.011,1.01 ± 0.01,1 ± 0.017,1.006 ± 0.0069,1.01 ± 0.01
[N-]=[N+]=Nc1ccc(C(=O)CSC[C@H](NC(=O)CC[C@H](N)C(=O)O)C(=O)NCC(=O)O)cc1 [S-(p-Azidophenacyl)glutathione],1.017 ± 0.0058,0.814 ± 0.0099,0.9947 ± 0.0067,1 ± 0.021,0.988 ± 0.014,0.517 ± 0.38
CC(C)(C)NCC(O)c1ccc(O)c(CO)c1 (stereo unspecified) [Salbutamol],1.013 ± 0.0058,1.02 ± 0.015,0.893 ± 0.22,1.03 ± 0.015,1.027 ± 0.0058,1.02
CC(C)(C)NCC(O)c1ccc(O)c(CO)c1 (stereo unspecified) [Albuterol hemisulfate],1.01 ± 0.012,1.01 ± 0.012,1.05 ± 0.064,1.01 ± 0.017,0.9877 ± 0.0045,0.988 ± 0.008
CO[C@H]1C[C@@H]2CC[C@@H](C)[C@@](O)(O2)C(=O)C(=O)N2CCCC[C@H]2C(=O)O[C@H]([C@H](C)C[C@@H]2CC[C@@H](OP(C)(C)=O)[C@H](OC)C2)CC(=O)[C@H](C)/C=C(\C)[C@@H](O)[C@@H](OC)C(=O)[C@H](C)C[C@H](C)/C=C/C=C/C=C/1C [Deforolimus (Ridaforolimus)],0.801 ± 0.064,1.06 ± 0.011,0.812 ± 0.025,1.04 ± 0.029,0.734 ± 0.024,1.02 ± 0.01
CCCCCCCC/C=C\CCCCCCCC(=O)O [Oleic Acid],1.017 ± 0.0058,1.03 ± 0.036,1.02 ± 0.01,1.06 ± 0.085,0.9927 ± 0.0021,1.01 ± 0.013
CN(C)[C@@H](CCOc1cccc2ccccc12)c1ccccc1 [Dapoxetine HCl],1.005 ± 0.0087,0.957 ± 0.016,1 ± 0.02,0.981 ± 0.017,1.003 ± 0.0058,0.9967 ± 0.0021
Nn1nnc2ccccc21 [1-Aminobenzotriazole],0.9867 ± 0.0081,0.9897 ± 0.0045,0.978 ± 0.007,0.987 ± 0.0071,0.981 ± 0.0092,0.982 ± 0.007
CN(C)CCCC1(c2ccc(F)cc2)OCc2cc(C#N)ccc21 (stereo unspecified) [Citalopram hydrobromide],1.01 ± 0.017,0.986 ± 0.021,1.013 ± 0.0058,1.02 ± 0.014,0.995 ± 0.0046,1.001 ± 0.009
CCCC(CCC)C(=O)O [Valproic acid sodium salt (Sodium valproate)],0.9867 ± 0.0059,1.01 ± 0.011,0.9627 ± 0.009,0.9923 ± 0.0093,0.9943 ± 0.0051,0.9997 ± 0.009
CCCC(CCC)C(=O)O [Valproic acid],1.01 ± 0.021,1.03 ± 0.02,1.01 ± 0.02,1.01 ± 0.025,1.002 ± 0.0099,1.01 ± 0.013
